T1: RBFOX1 RRM (Homo sapiens, UniProt Q9NWB1 109-208)
T1 sequence: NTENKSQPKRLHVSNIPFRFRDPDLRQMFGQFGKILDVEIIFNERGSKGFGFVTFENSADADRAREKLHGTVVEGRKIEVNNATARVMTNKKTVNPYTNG

B1: ACAAUCA (DNA:RNA)
RNA: GGGAGACCGGAAUUCAGAUUGUCCACAAUCAUUAAAUCCCGUCGUAGCCACCA
DNA 1: CAATCTGAATTCCGGTCTCCC
DNA 2: TGGTGGCTACGACGGGATT
B2: CAUCACC (DNA:RNA)
RNA: B1 RNA with A25C, C26A, A27U, A28C, U29A, A31C
DNA 1: CAATCTGAATTCCGGTCTCCC
DNA 2: TGGTGGCTACGACGGGATT
B3: GCUUAAG (DNA:RNA)
RNA: B1 RNA with A25G, A27U, A28U, U29A, C30A, A31G
DNA 1: CAATCTGAATTCCGGTCTCCC
DNA 2: TGGTGGCTACGACGGGATT
B4: GAAGCGU (DNA:RNA)
RNA: B1 RNA with A25G, C26A, A28G, U29C, C30G, A31U
DNA 1: CAATCTGAATTCCGGTCTCCC
DNA 2: TGGTGGCTACGACGGGATT
B5: CCCAUGG (DNA:RNA)
RNA: B1 RNA with A25C, A27C, C30G, A31G
DNA 1: CAATCTGAATTCCGGTCTCCC
DNA 2: TGGTGGCTACGACGGGATT
B6: GACUGGA (DNA:RNA)
RNA: B1 RNA with A25G, C26A, A27C, A28U, U29G, C30G
DNA 1: CAATCTGAATTCCGGTCTCCC
DNA 2: TGGTGGCTACGACGGGATT
B7: AGUGCGU (DNA:RNA)
RNA: B1 RNA with C26G, A27U, A28G, U29C, C30G, A31U
DNA 1: CAATCTGAATTCCGGTCTCCC
DNA 2: TGGTGGCTACGACGGGATT
B8: CACUACU (DNA:RNA)
RNA: B1 RNA with A25C, C26A, A27C, A28U, U29A, A31U
DNA 1: CAATCTGAATTCCGGTCTCCC
DNA 2: TGGTGGCTACGACGGGATT
B9: CACCGAU (DNA:RNA)
RNA: GGGAGACCGGAAUUCAGAUUGUCCCACCGAUUUAAAUCCCGUCGUAGCCACCA
DNA 1: CAATCTGAATTCCGGTCTCCC
DNA 2: TGGTGGCTACGACGGGATT
B10: GCCUCAU (DNA:RNA)
RNA: B9 RNA with C25G, A26C, C28U, G29C
DNA 1: CAATCTGAATTCCGGTCTCCC
DNA 2: TGGTGGCTACGACGGGATT
B11: AACCCCU (DNA:RNA)
RNA: B9 RNA with C25A, G29C, A30C
DNA 1: CAATCTGAATTCCGGTCTCCC
DNA 2: TGGTGGCTACGACGGGATT
B12: AACGGAC (DNA:RNA)
RNA: B9 RNA with C25A, C28G, U31C
DNA 1: CAATCTGAATTCCGGTCTCCC
DNA 2: TGGTGGCTACGACGGGATT
B13: CCGUGCA (DNA:RNA)
RNA: B1 RNA with A25C, A27G, A28U, U29G
DNA 1: CAATCTGAATTCCGGTCTCCC
DNA 2: TGGTGGCTACGACGGGATT
B14: AGCAAGG (DNA:RNA)
RNA: B1 RNA with C26G, A27C, U29A, C30G, A31G
DNA 1: CAATCTGAATTCCGGTCTCCC
DNA 2: TGGTGGCTACGACGGGATT
B15: UUUUAAU (DNA:RNA)
RNA: B9 RNA with C25U, A26U, C27U, C28U, G29A
DNA 1: CAATCTGAATTCCGGTCTCCC
DNA 2: TGGTGGCTACGACGGGATT
B16: ACAUUCG (DNA:RNA)
RNA: B1 RNA with A28U, A31G
DNA 1: CAATCTGAATTCCGGTCTCCC
DNA 2: TGGTGGCTACGACGGGATT
B17: CGGUGAC (DNA:RNA)
RNA: B9 RNA with A26G, C27G, C28U, U31C
DNA 1: CAATCTGAATTCCGGTCTCCC
DNA 2: TGGTGGCTACGACGGGATT
B18: UUUUUUC (DNA:RNA)
RNA: B1 RNA with A25U, C26U, A27U, A28U, C30U, A31C
DNA 1: CAATCTGAATTCCGGTCTCCC
DNA 2: TGGTGGCTACGACGGGATT
B19: UGUCGGC (DNA:RNA)
RNA: B9 RNA with C25U, A26G, C27U, A30G, U31C
DNA 1: CAATCTGAATTCCGGTCTCCC
DNA 2: TGGTGGCTACGACGGGATT
B20: GGUCGUC (DNA:RNA)
RNA: B9 RNA with C25G, A26G, C27U, A30U, U31C
DNA 1: CAATCTGAATTCCGGTCTCCC
DNA 2: TGGTGGCTACGACGGGATT
B21: CAUCCGA (DNA:RNA)
RNA: B9 RNA with C27U, G29C, A30G, U31A
DNA 1: CAATCTGAATTCCGGTCTCCC
DNA 2: TGGTGGCTACGACGGGATT
B22: UGGAACU (DNA:RNA)
RNA: B1 RNA with A25U, C26G, A27G, U29A, A31U
DNA 1: CAATCTGAATTCCGGTCTCCC
DNA 2: TGGTGGCTACGACGGGATT
B23: CAGUGGA (DNA:RNA)
RNA: B9 RNA with C27G, C28U, A30G, U31A
DNA 1: CAATCTGAATTCCGGTCTCCC
DNA 2: TGGTGGCTACGACGGGATT
B24: UACUUAU (DNA:RNA)
RNA: B9 RNA with C25U, C28U, G29U
DNA 1: CAATCTGAATTCCGGTCTCCC
DNA 2: TGGTGGCTACGACGGGATT
B25: GGUUCGA (DNA:RNA)
RNA: B1 RNA with A25G, C26G, A27U, A28U, U29C, C30G
DNA 1: CAATCTGAATTCCGGTCTCCC
DNA 2: TGGTGGCTACGACGGGATT
B26: CAUGGUG (DNA:RNA)
RNA: B9 RNA with C27U, C28G, A30U, U31G
DNA 1: CAATCTGAATTCCGGTCTCCC
DNA 2: TGGTGGCTACGACGGGATT
B27: AGAGGUU (DNA:RNA)
RNA: B1 RNA with C26G, A28G, U29G, C30U, A31U
DNA 1: CAATCTGAATTCCGGTCTCCC
DNA 2: TGGTGGCTACGACGGGATT
B28: UAAAUGC (DNA:RNA)
RNA: B1 RNA with A25U, C26A, C30G, A31C
DNA 1: CAATCTGAATTCCGGTCTCCC
DNA 2: TGGTGGCTACGACGGGATT
B29: GCAUAAC (DNA:RNA)
RNA: B1 RNA with A25G, A28U, U29A, C30A, A31C
DNA 1: CAATCTGAATTCCGGTCTCCC
DNA 2: TGGTGGCTACGACGGGATT
B30: CGCGCAG (DNA:RNA)
RNA: B9 RNA with A26G, C28G, G29C, U31G
DNA 1: CAATCTGAATTCCGGTCTCCC
DNA 2: TGGTGGCTACGACGGGATT
B31: CUAAGCU (DNA:RNA)
RNA: B1 RNA with A25C, C26U, U29G, A31U
DNA 1: CAATCTGAATTCCGGTCTCCC
DNA 2: TGGTGGCTACGACGGGATT

Changes are numbered by the printed parent chain; changes in the protein carry UniProt numbers. The list shows a part of the results.

For this assay, the target named is T1, RBFOX1 RRM. Description: EMSA; HiTS-Eq, 1 nM pool, 10 min; buffer printed only for the single-RNA assays: 10 mM Tris pH 7.5, 150 mM NaCl, 3.4 mM EDTA, 0.001% NP-40, 30 C. The following applies: tags: His6 N-terminal (pET28a); label: 5' 32P. In outline:
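These values rest on relative association constants, computed from read-count changes of each RNA species versus the control reaction and normalised to the cognate motif. Reads came from free RNA recovered by 8% native PAGE after purified RbFox RRM (wild type or mutant) at increasing concentrations was equilibrated for 10 min in 50 µL with 1 nM of a 5′-radiolabelled pool with 7 randomized nucleotides and DNA-annealed flanks.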
(In general: In EMSA bound probe runs differently from free probe, usually more slowly.)
Turning to B1, the binding signal was 0.000916 KA relative to UGCAUGU. The figure for B2 is 0.00162 KA relative to UGCAUGU; for B3 it is 0.00928 KA relative to UGCAUGU; for B4 it is 0.0133 KA relative to UGCAUGU. The result for B5 reads 0.00694 KA relative to UGCAUGU; that for B6, 0.0138 KA relative to UGCAUGU; that for B7, 0.0174 KA relative to UGCAUGU. For B8, the binding signal was 0.000605 KA relative to UGCAUGU. Take B9: the binding signal was 0.00369 KA relative to UGCAUGU. The result for B10 reads 0.00777 KA relative to UGCAUGU; that for B11, 0.00266 KA relative to UGCAUGU; that for B12, 0.0135 KA relative to UGCAUGU. The result for B13 reads 0.017 KA relative to UGCAUGU; that for B14, 0.0132 KA relative to UGCAUGU; that for B15, 0.00803 KA relative to UGCAUGU. The figure for B16 is 0.00784 KA relative to UGCAUGU; for B17 it is 0.00761 KA relative to UGCAUGU; for B18 it is 0.0224 KA relative to UGCAUGU. As for B19, the binding signal is 0.014 KA relative to UGCAUGU.

For the molecule B20, the binding signal is 0.00991 KA relative to UGCAUGU. Regarding B21, the binding signal was 0.00267 KA relative to UGCAUGU. The result for B22 reads 0.0197 KA relative to UGCAUGU; that for B23, 0.00702 KA relative to UGCAUGU.

As for B24, the binding signal was 0.00491 KA relative to UGCAUGU. B25: the binding signal is 0.00546 KA relative to UGCAUGU.

In the case of B26, the binding signal was 0.016 KA relative to UGCAUGU. On to B27, for which the binding signal was 0.00979 KA relative to UGCAUGU. As to B28, the binding signal is 0.00992 KA relative to UGCAUGU. The figure for B29 is 0.00489 KA relative to UGCAUGU; for B30 it is 0.0125 KA relative to UGCAUGU.

Regarding B31, the binding signal was 0.00577 KA relative to UGCAUGU.

The values above are taken from PMC9911399, “Two distinct binding modes provide the RNA-binding protein RbFox with extraordinary sequence specificity”.
